The source gives no read counts; variants with many changes may rest on few reads.
B1: LINE1-mini (parent)
chain: GGCAGAGCUCAACACAGCGUGGCAAAGUGGCUGUGGCUAGACUGCC

Variants of: B1
Experiment: self-cleavage, relative activity (ratio to wild type); higher = more cleavage; in vitro, sequencing; the parent is a self-cleaving ribozyme

| Variant | self-cleavage |
| --- | --- |
| GCCAGGGCUCAACACAGCGUGGCUAAGUGGCUGUGGCGAGACUGCC | 0.01 |
| GCCAGGGCUAAACACAGCGAGGCCAAGUGGCUGCGGCUAGACUGCC | 0.01 |
| GCCGGAGCUUAACACAGCGUGGCAAAGUGGCUGUGGCUAGACUACC | 0.04 |
| GCCUGAGCUCAACACAUCGUGGCAAAGUGGCUGUGGCUAGACUGCC | 0.04 |
| GCCAGCGCUCAACACAGCGUGGCCAAGUGGCAGUGGCUAGACUGCC | 0.05 |
| GCCAGGGCUAAACACAGCGUGGCAAAGUGGCUGUAGCUAGACUGCC | 0.19 |
| GCCUGAGCGCAUCACUGCGUGGCAAAGUGGCUGUGGUUAGACUGCC | 0.01 |
| GCCUGAGCGCACCUCAGCGUGGCAAAGUGGCUGUGGCUAGACUGCC | 0.04 |
| GCCAGCGCUCAACACAGCGUGGCAAAGGGGCAGUGGCUAGACUGCA | 0.02 |
| GACAGAGCUCAACACAGCGUGGCAAAGCGGCAGUGGCUAGACUGCC | 0.26 |
| GCCUGAGCUCAACACAGAGUGGCAAAGUGGCUGUGGGUAGACUGCC | 0.05 |
| GCCAGCGCUCAGCACAGCGUGGCAAAGUGGCUGUGGCUAGCCUGCC | 0.02 |
| GCCGGAGCUCAACACAGCGUGGCAACGUGGCUGCGGCUAGACUGCC | 0.09 |
| GCCUGAGCUCAACACAGCGUGGCAAAGUGCCUGUGGCUAGACUGCC | 0.05 |
| GCCAGGGCUCAAAUCAGCGUGGCAAAGUGGCUGUGGCUAGACUGCC | 0.13 |
| GCCGGGGCUCGACACAGCGUGGCAAAGUGGCUGUGGCUAGCCUGCC | 0.02 |
| GACAGAGCUCAACACAGCGUGGCAAAGUGGCAGUGGGUAGACUGCC | 0 |
| GCCUGAGCUAAACAUAGCGUGGCAAAGUGGCUGUGGCUCGACUGCC | 0.04 |
| GCCAGCGCUCAAUAAAGCGUGGCAAAGUGGCUGUGGCUAGUCUGCC | 0.03 |

| Variant | self-cleavage |
| --- | --- |
| GCCAGGGCUCAACAUAGCGUGGCAAAGUGGGGGUGGCUAGACUGCC | 0.2 |
| GCCCGAGCUAAACACAGCGUUGCAAAGUGGCUGUAGCUAGACUGCC | 0.02 |
| GCCUGAGCUCAACACAACGUGGCAAACUGGCUGUGGCUACACUGCC | 0.03 |
| GCCUGAGAUCAACACACCCUGGCAAUGUGGCGGUGGCUAGACUGCC | 0.03 |
| GCCCGAGCUGAACACAGCGUGGCUAAGCGGCUGUCGCUAGACUGCA | 0 |
| GCCUGAGGUCAACACAGCCUGGCAAAGUGGCUGUGGCUAGACUGCC | 0.02 |
| GCCUGAACCCAACACAGCGUGGCAAGGUGGCUUUGGCUAGACUGCC | 0.03 |
| GCCAGGGCUAAACACAGCGUGGCAAAGUCGCUGUGGCUAGACGGGC | 0 |
| GCCAGCGCUCAACACAGCGUGGCAAAGUGGCUGUAGCUAGACUGCC | 0.13 |
| GCCAGGGCUCAACACAGAGUCGCAAAGUGGCUGUGGCUAGACUGCU | 0.03 |
| GCCCGAGCUCAACACUGCGUGGCUAAGUGGCGGUGACUAGACUGCC | 0.04 |
| GCCAGCGCUCUACACAGCAUGGCAAAGUGGCUGUGGCUCGAGUGCC | 0.01 |
| GCCGGAGCUCAACACAGCGUGGCAAAUUGGCUAUUGGUAGACUGCA | 0.02 |
| GCCCGAUCUCAACACAGCGUGGCAAAGUGGCUGUGGCUAUACUGCC | 0.04 |
| GCCGUAGCUCAACACAGCGUGGCAAUGUGGCUGUGGCUAGACUGUC | 0.08 |
| GCCUGAGUUCAACACAGCUUGGCAAAAAGGCUGUCGCUCGACUGCC | 0.12 |
| GCCUGAGCUCAACACAGCGUGCAAAAGUGGCUAUGGCUAGACUGCU | 0.06 |
| GCCGGAGGUCAACACAGCGUUGCAAAGUUGCUGUGGCUAGACUGCC | 0.01 |
| GCCAGCACUCAACACAGCGUCGCAAGGUGGCUGUGGCCACACUGCC | 0.05 |

| Variant | self-cleavage |
| --- | --- |
| GCCAGCGCUCGACACAGCGUAGCAAAGUGGCUGUGGCUAGACUGCC | 0.02 |
| GCCAGGGCUCAUCACAAGGUGGCAGAGUGGCUGUUGCUAGGCUGUC | 0 |
| GCCCGAAUUCAACACAGAGUGGCAAAGUGGCUGUGGCUAGACUGCC | 0.23 |
| GCCGGAGCUCAACACAGCGUGGCAAAGUAGCUGUGGCUAGACUGCC | 0.18 |
| GCCUGAGCUCAAAACAGCAUGGCAAAGUGGCUGUGGCUAGAAUGCC | 0.11 |
| GCCCGAGCUCAACACAGCGUGGCAGAGUGGCUGUGGCCAGACUGCC | 0.06 |
| GCCGGAGCUCAACACAUCGUGGCAAAGUGGGUGCGGCUAGACUGCC | 0.03 |
| GCCGGAGCUCAACACAGCGUGGCAAAGUGGCUGUGGCUAGACUCCC | 0.27 |
| GACAGAGCUCAACACAGCGUGGCAAAGUGGCUGCGGCUAGAUUGCC | 0.03 |
| GCCGGAGCUCAACACAGCGUGGUAAUGUGGCUGUGGCUAGACUCCC | 0.02 |
| GCCGGAGCUCAAGAUAGUGUGGCAAAGUGGCUGUAGCUAGACUGCC | 0.25 |
| GCCAGCGCUCAACACAGCGUGACAAAGUGGCUGUGGCUAGACUGCC | 0.12 |
| GCCCGGGCUCGACACAGUGUGGCAAAGUGGCUGUGGCUAGACUGCC | 0.02 |
| GCCUGAGCUCAACACAGCGUGCCAAAGUGGCUAUGGCUGAACUGAC | 0.01 |
| GCCGAAGCUCAACACUGCGUGGCAAUGUGCCUGUGGCUAGACUGCC | 0.08 |
| GACAGAGCUCAACACAGCGUGGCAAAGACGCUGUGGCUAGACUGCC | 0.2 |
| GCCGGAGCUCAACACAGCGUGGCAAAGUGGCUGUGGCUAGACUGCA | 0.04 |
| GCCUCAGCACAACACAGCGUGGCAAAGUGGCAGAGGCUAGACUGCA | 0.02 |

Source: the RNAGym collection of RNA variant scans (doi:10.7554/elife.90254)
